Results taken from patent publication US9278962B2 (Cytokinetics, Inc., priority 2011, dated 2016).
At least one compound was matched to its structure with a doubt left.

Test system: rabbit skeletal myofibrils (approximately 90% fast fibers)
Test: Activation of fast skeletal myofibrils (PUMA coupled-enzyme ATPase assay, AC1.4)
Type: biochemical
Conditions: Table 2; concentration at which the compound increased enzymatic activity by 40%; calcium at pCa25
Method: Rabbit skeletal myofibrils were prepared based upon the method of Herrmann et al. (Biochem. 32(28):7255-7263(1993). Myofibrils were prepared from rabbit psoas muscle purchased from Pel-Freez Biologicals (Arkansas) within 2 days of ordering, stored on ice. Minced muscle was homogenized in 10 volumes of ice-cold “standard” buffer (50 mM Tris, pH 7.4, 0.1 M potassium acetate, 5 mM KCl, 2 mM DTT, 0.2 mM PMSF, 10 μM leupeptin, 5 μM pepstatin, and 0.5 mM sodium azide) containing 5 mM EDTA and 0.5% Triton X-100 using an Omni-Macro homogenizer. Myofibrils were recovered by low speed centrifugation (3000 rpm for 10 minutes) and washed 2 times in the Triton X-100 containing buffer to ensure removal of cellular membrane. Following the Triton washes, myofibrils were washed 3 times in “standard” buffer containing 2 mM magnesium acetate. A final wash in assay buffer (12 mM PIPES, pH 6.8, 60 mM KCl, 1 mM DTT) was performed and brought to 10% sucrose for flash freezing in liquid nitrogen and storage at −80° C.
Fast fiber activators were identified by measuring the enzymatic activity of muscle myofibril preparations using the proprietary PUMA™ (see, e.g., U.S. Pat. Nos. 6,410,254, 6,743,599, 7,202,051, and 7,378,254) assay system. Myofibril preparations consisted of rabbit skeletal muscle (approximately 90% fast fibers) that had been mechanically homogenized and washed with a detergent (triton X-100) to remove cellular membranes. This preparation retained all of the sarcomeric components in a native conformation and the enzymatic activity was still regulated by calcium. Compounds were tested using a myofibril suspension and a level of calcium sufficient to increase enzymatic activity of the myofibrils to 25% of their maximal rate (termed pCa25). Enzymatic activity was tracked via a pyruvate kinase and lactate dehydrogenase-coupled enzyme system. This assay regenerates myosin-produced ADP into ATP by oxidizing NADH, producing an absorbance change at 340 nm. The buffering system was 12 mM Pipes, 2 mM MgCl2, 1 mM DTT at pH 6.8 (PM12 buffer).
Using procedures similar to those described herein, utilizing reagents and intermediates commercially available (e.g., Sigma-Aldrich) or readily synthesized by one of skill in the art, the compounds in Table 2, Table 3, Table 4 and Table 5 were synthesized, characterized and tested. AC1.4 values were determined according to the procedure described in Example 6, and the reported median AC1.4 values are as follows: A=<1 uM; B=1-10 uM; C=10-20 uM; D=>20 uM.

Row | Compound | Mean AC1.4
1 | CC(CNc1nc(-c2cccc(C(N)=O)c2)ns1)n1cccn1 (stereo not drawn) [3-{5-[(2-pyrazolylpropyl)amino]-1,2,4-thiadiazol-3-yl}benzamide] | D (D=>20 uM)
2 | CC(C)(CNc1nc(C#N)ns1)c1ccc(F)cc1 [5-{[2-(4-Fluorophenyl)-2-methylpropyl]amino}-1,2,4-thiadiazole-3-carbonitrile] | B (B=1-10 uM)
3 | CC(C)(CNc1nc(CN2CC[C@@H](O)C2)ns1)c1ccc(F)cc1 [(3R)-1-[(5-{[2-(4-fluorophenyl)-2-methylpropyl]amino}(1,2,4-thiadiazol-3-yl))methyl]pyrrolidin-3-ol] | B (B=1-10 uM)
4 | Fc1ccc(Cc2nsc(NCCc3ccc(Cl)cc3Cl)n2)cc1 [[2-(2,4-dichlorophenyl)ethyl]{3-[(4-fluorophenyl)methyl](1,2,4-thiadiazol-5-yl)}amine] | C (C=10-20 uM)
5 | Fc1ccc(Cc2nsc(NCCc3ccc(Cl)c(Cl)c3)n2)cc1 [[2-(3,4-dichlorophenyl)ethyl]{3-[(4-fluorophenyl)methyl](1,2,4-thiadiazol-5-yl)}amine] | B (B=1-10 uM)
6 | CC(C)(CNc1nc(CCN2CCCC2)ns1)c1ccc(F)cc1 [[2-(4-fluorophenyl)-2-methylpropyl][3-(2-pyrrolidinylethyl)(1,2,4-thiadiazol-5-yl)]amine] | D (D=>20 uM)
7 | CC(C)(CNc1nc(CCCNC(N)=O)ns1)c1ccc(F)cc1 [amino-N-[3-(5-{[2-(4-fluorophenyl)-2-methylpropyl]amino}(1,2,4-thiadiazol-3-yl))propyl]amide] | C (C=10-20 uM)
8 | CC(C)(CNc1nc(CNC(N)=O)ns1)c1ccc(F)cc1 [amino-N-[(5-{[2-(4-fluorophenyl)-2-methylpropyl]amino}(1,2,4-thiadiazol-3-yl))methyl]amide] | C (C=10-20 uM)
9 | CC(C)(C)OC(=O)N1CCC(CNc2nc(-c3cccc(C(N)=O)c3)ns2)(c2ccc(F)cc2)CC1 [tert-butyl 4-({[3-(3-carbamoylphenyl)(1,2,4-thiadiazol-5-yl)]amino}methyl)-4-(4-fluorophenyl)piperidinecarboxylate] | A (A=<1 uM)

Same assay, conditions: Table 3; concentration at which the compound increased enzymatic activity by 40%; calcium at pCa25

Row | Compound | Mean AC1.4
10 | CC(CNc1nnc(-c2ccc3[nH]nc(N)c3c2)s1)c1ccc(F)cc1 (stereo not drawn) [5-(3-amino-1H-indazol-5-yl)-N-(2-(4-fluorophenyl)propyl)-1,3,4-thiadiazol-2-amine] | B (B=1-10 uM)
11 | CSc1ncc(Br)c(-c2nnc(NC[C@]3(c4ncccc4F)C[C@H](F)C3)s2)n1 [5-(5-bromo-2-(methylthio)pyrimidin-4-yl)-N-((3-fluoro-1-(3-fluoropyridin-2-yl)cyclobutyl)methyl)-1,3,4-thiadiazol-2-amine] | B (B=1-10 uM)

Same assay, conditions: Table 4; concentration at which the compound increased enzymatic activity by 40%; calcium at pCa25

Row | Compound | Mean AC1.4
12 | CCC(=O)Nc1nc2ccc(C#N)cc2s1 [N-(6-cyanobenzo[d]thiazol-2-yl)propionamide] | D (D=>20 uM)
